43 compounds from ChEMBL document CHEMBL4888484, “Replenishing the malaria drug discovery pipeline: Screening and hit evaluation of the MMV Hit Generation Library 1 (HGL1) against asexual blood stage Plasmodium falciparum ,using a nano luciferase reporter read-out” (2022) can be followed below.

Among all 150,000 compounds or so, about 540 (0.36%) showed an effect of 50% or more. The list shows a part of the results.

In the assay the test system is Plasmodium falciparum. Put plainly: Primary screen in NF54 nanoGlo assay, in single point, at 2uM, 72h; a lower Z score goes with more inhibition. The class given is functional, Erythrocyte. The note with it: timepoint 72 hour.
As for `Cc1cc(C)n(Cc2nc(Cn3cc(Br)cn3)no2)n1`, the “% Inhibition” value is -11% and the Z score is 1.75.
Taken in the same sequence, the figures for `COCCCN1C(=O)C2C(C)NC3(C(=O)Nc4c(Cl)cccc43)C2C1=O` (stereo unspecified) were -14% and 1.85.
For `Cc1nc(-c2ccccc2)cc(N2CCN(CCc3ccccc3)CC2)n1`, the “% Inhibition” value stood at 0% and the Z score was 0.
For `Cc1[nH]cnc1CNC(=O)c1sccc1Cl`, the “% Inhibition” value is -9% and the Z score came to 1.62.
Taken in the same sequence, the figures for `Oc1cc(-c2ncc(C(F)(F)F)cc2Cl)cc2c1OCCNC2` were -11% and 1.71.
Taken in the same sequence, the figures for `CC[C@@H](C(=O)NCc1ccc(OC(C)C)cc1)n1ccc2cc(S(=O)(=O)N3CCCCC3)ccc21` were 34% and -4.98.
Taken in the same sequence, the figures for `Cc1ccc2c(c1)N(C)C(=O)c1cc(NS(=O)(=O)c3ccc(Cl)cc3)ccc1O2` were -7% and 0.85.
On to `COCCc1noc(CCCc2c[nH]c3ccccc23)n1`, for which the “% Inhibition” value is given as -4% and the Z score worked out at 0.7.
For `O=C(c1cnn2c1OCCC2)N1CCc2nc[nH]c2C12CCC2`, the “% Inhibition” value was -4% and the Z score came out at 0.53.
Taken in the same sequence, the figures for `Clc1cccc(C2CC(N[C@H]3CCc4cn[nH]c4C3)C2)c1` (stereo partly specified) were -7% and 1.35.
Taken in the same sequence, the figures for `COc1ccc(-c2ccc(N3CCCN(C(=O)CN(C(=O)C4CCC4)C4CC4)CC3)nn2)cc1` were -11% and 2.28.
Turning to `CCCc1noc(CNC2(C(=O)OC)CCC(C)CC2)n1` (stereo unspecified), the “% Inhibition” value is -6% and the Z score came to 0.75.
Taken in the same sequence, the figures for `O=C(NC1CCCCC1)C(=O)c1ccc[nH]1` were 6% and -0.55.
On to `Cc1nsc2ncc(C(=O)N3CCOCC3)c(N3CCC(C(=O)Nc4ccccc4C(F)(F)F)CC3)c12`, for which the “% Inhibition” value was -2% and the Z score was determined as 0.4.
Taken in the same sequence, the figures for `CCC(=O)N1CCCN(S(=O)(=O)C(C)C)CC1` were -1% and 0.1.
Taken in the same sequence, the figures for `Cc1cn(CCNC(=O)Cc2nc(C)sc2C)nn1` were 2% and -0.42.
Taken in the same sequence, the figures for `c1ccc(CN2CC[C@H](c3nc(-c4cnccn4)no3)C2)cc1` were -7% and 1.31.
`O=C(Nc1ccccc1-c1ccccc1)c1ccc(-n2cnnn2)cc1`: the “% Inhibition” value came to 3% and the Z score was -0.48.
Taken in the same sequence, the figures for `Cc1cncc(C(=O)Oc2ccc(OCc3cnn(C)c3)cc2)c1` were -4% and 0.35.
Taken in the same sequence, the figures for `Cc1nc(CCNC(=O)N[C@@](C)(CO)C2CCCCC2)cs1` were -16% and 1.85.
For `COC(=O)c1cc(C(=O)N2CC3CCCC3C2)ccn1` (stereo unspecified), the “% Inhibition” value was -4% and the Z score is 0.71.
Taken in the same sequence, the figures for `Cc1oc(C)c(C(=O)Nc2nc(-c3cccc4ccccc34)cs2)c1Br` were -16% and 1.63.
With `O=C1Nc2ccc(-c3cccc(C(F)(F)F)c3)cc2C(=O)N2CCN(C(=O)C3CCNCC3)C[C@H]12`, the “% Inhibition” value was -2% and the Z score was determined as 0.28.
Taken in the same sequence, the figures for `Cc1sc(S(=O)(=O)N2CCCC2)cc1NC(=O)c1ccc(F)c(F)c1` were -2% and 0.3.
Taken in the same sequence, the figures for `COc1cc2c(cc1OC)[C@@H](c1c(F)cccc1Cl)N(C(=O)COc1ccccc1)CC2` were 11% and -1.55.
For `Cc1ccc(-c2ccccc2CN2C[C@@H](CN(C)C)C[C@H](CO)C2)o1`, the “% Inhibition” value is on record as -11% and the Z score was 1.14.
For the compound `COc1ccc(OC)c([C@H](C)NC(=O)c2cccc3nccn23)c1`, the “% Inhibition” value was -7% and the Z score is listed as 0.75.
On to `COc1ccc(CCN2C(=O)[C@H](CC(C)C)NC23CCN(C(=O)c2cccc(F)c2)CC3)cc1OC`, for which the “% Inhibition” value was -12% and the Z score came to 1.2.
As to `Cc1ccc(-c2cc3c4c(C)n(C)c(C)c4c(C)nn3c2)o1`, the “% Inhibition” value is on record as 4% and the Z score was -0.51.
In the case of `O=C(COc1ccccc1)Nc1ccc(N2CCN(C(=O)c3cccc(F)c3)CC2)nc1`, the “% Inhibition” value is -20% and the Z score came to 2.72.
Taken in the same sequence, the figures for `CCc1nc(N(C)CC[C@H](C)N2CCCC2)no1` were -12% and 1.34.
Taken in the same sequence, the figures for `CCOCCCC(=O)Nc1cc(Br)c(F)cc1OC` were -7% and 1.02.
As for `CNc1ccc(C)cc1CN[C@@H]1c2ccccc2OC[C@@H]1CO`, the “% Inhibition” value turned out to be 2% and the Z score is reported as -0.23.
Taken in the same sequence, the figures for `Cc1n[nH]cc1CN(C)C(=O)COCC(F)(F)C(F)F` were 8% and -1.23.
Regarding `Cc1nc2c(c(NC[C@H](O)C(N)=O)n1)CCCC2`, the “% Inhibition” value is reported as 4% and the Z score is reported as -0.55.
As to `Cc1[nH]n(C(=N)N)c(=O)c1Cc1ccccc1`, the “% Inhibition” value is reported as -13% and the Z score was determined as 2.44.
With `O=C(NCCc1ccccn1)c1ccc(Nc2c(Oc3ccccc3)cnn(Cc3ccccc3)c2=O)cc1`, the “% Inhibition” value was 3% and the Z score is -0.51.
On to `Cc1nn(C)c(C)c1CC(=O)N1CCN(c2ccccn2)CC1`, for which the “% Inhibition” value is reported as -5% and the Z score was determined as 0.67.
Taken in the same sequence, the figures for `CC(C)N1CCN2C(=O)c3ccccc3OCC[C@@H]3CC[C@@H](NC(=O)CC(C)(C)C)[C@@H](CNC(=O)[C@@H]2C1)O3` were -2% and 0.23.
Taken in the same sequence, the figures for `Cc1ccc(-n2nc(C)c(CC(=O)N[C@H]3C[C@@H](O)C3)c2C)cc1Cl` were -4% and 0.56.
Taken in the same sequence, the figures for `CCc1ccc(-c2nn(C)c(=O)c3c2CCCC3)cc1S(=O)(=O)N1CCCCCC1` were -10% and 1.53.
As for `CN1C(=O)[C@@H](c2ccccc2)CC12CCN(Cc1ccsc1)CC2`, the “% Inhibition” value was 4% and the Z score is reported as -0.76.
Taken in the same sequence, the figures for `COc1cc(NC(=O)c2c(F)cccc2Cl)ccc1N1CCCCC1=O` were -8% and 1.21.

Broadly, the % Inhibition is the change of the read-out against control, counted positive when it falls.
